Laboratory results taken from paper PMC4336329 (PLoS ONE, 2015).
The campaign covered roughly 310,000 compounds. About 2,200 (0.71%) showed an effect of 50% or more. Effects have a minus sign here. The list shows a part of the results.

biological target: human ether-à-go-go-related gene (hERG) potassium channel (human, UniProt Q12809); experiment: primary screen, population patch clamp on CHO cells stably expressing hERG
Sequence (Q12809 whole entry, looked up): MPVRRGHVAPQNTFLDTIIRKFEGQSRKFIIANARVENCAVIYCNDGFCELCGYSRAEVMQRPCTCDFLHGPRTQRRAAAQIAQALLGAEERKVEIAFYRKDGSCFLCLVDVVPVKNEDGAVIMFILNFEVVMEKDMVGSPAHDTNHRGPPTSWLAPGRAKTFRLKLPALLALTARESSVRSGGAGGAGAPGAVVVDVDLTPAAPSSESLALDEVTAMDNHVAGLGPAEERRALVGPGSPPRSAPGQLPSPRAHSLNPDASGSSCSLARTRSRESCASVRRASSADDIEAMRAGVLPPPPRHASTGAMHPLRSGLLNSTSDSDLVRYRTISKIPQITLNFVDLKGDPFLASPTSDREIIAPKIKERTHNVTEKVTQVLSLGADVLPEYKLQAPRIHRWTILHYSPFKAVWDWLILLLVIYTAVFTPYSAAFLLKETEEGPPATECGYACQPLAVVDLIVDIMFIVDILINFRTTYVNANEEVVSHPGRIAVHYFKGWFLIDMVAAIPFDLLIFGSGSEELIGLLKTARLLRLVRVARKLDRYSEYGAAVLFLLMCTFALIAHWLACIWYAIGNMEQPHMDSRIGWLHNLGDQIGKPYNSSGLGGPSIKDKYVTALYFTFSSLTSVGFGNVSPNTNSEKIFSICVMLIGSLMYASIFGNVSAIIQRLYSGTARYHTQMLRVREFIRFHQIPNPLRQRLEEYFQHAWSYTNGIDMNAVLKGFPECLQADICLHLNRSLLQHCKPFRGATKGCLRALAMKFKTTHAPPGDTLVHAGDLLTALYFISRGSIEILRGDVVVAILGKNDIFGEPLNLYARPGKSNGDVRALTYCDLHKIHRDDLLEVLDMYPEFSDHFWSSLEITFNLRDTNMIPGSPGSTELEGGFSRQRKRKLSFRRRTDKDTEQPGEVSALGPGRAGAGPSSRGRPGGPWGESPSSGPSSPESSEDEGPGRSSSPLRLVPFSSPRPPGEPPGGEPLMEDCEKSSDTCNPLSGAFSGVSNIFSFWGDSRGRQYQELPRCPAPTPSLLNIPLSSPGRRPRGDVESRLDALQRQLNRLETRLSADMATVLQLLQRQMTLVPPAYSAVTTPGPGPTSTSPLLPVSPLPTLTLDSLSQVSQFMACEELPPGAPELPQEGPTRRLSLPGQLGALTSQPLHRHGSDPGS

SMILES | hERG current change (%, negative = inhibition) at 1uM
O=C(Nc1ccc(Cl)c(Cl)c1)O/N=C/c1ccncc1 | 10.7%
Cc1ccc(C)c(N2CCN(C(=O)CN(C)S(=O)(=O)c3cnc[nH]3)CC2)c1 | 7.37%
COC(=O)c1ccccc1NC(=S)NC(=O)c1ccc2c(c1)OCO2 | 20.6%
O=C(CN1C(=O)c2cccc3cccc1c23)N1CCN(c2ccc(F)cc2)CC1 | 11.5%
CCC(C)N(C(=O)COC(=O)CNC(=O)c1sc2ccccc2c1Cl)C1CCS(=O)(=O)C1 (stereo not shown) | 8.69%
CCOC(=O)c1c(NC(=O)CN2C(=O)C(=O)N(C(C)C)C2=O)sc(C)c1CC | -4.61%
O=C(NCCc1ccc(Cl)cc1)C1CCCN(S(=O)(=O)N2CCCCCC2)C1 (stereo not shown) | 10.3%
CCc1ccc(OCC(=O)Nc2ccc(N3CCN(S(C)(=O)=O)CC3)cc2)cc1 | 20.9%
COc1cccc(C(=O)NN2CC(O)=C(c3nc(C)cs3)C2=N)c1 | 7.96%
Cc1cc(S(=O)(=O)ON2C(=O)c3ccccc3C2=O)ccc1F | 13.7%
Cc1cc(C)c(NS(=O)(=O)c2cccc3cccnc23)c(C)c1 | -2.12%
Cc1ccc2c(CN3CC(C)CC(C)C3)cc(=O)oc2c1C (stereo not shown) | 9.29%
O=C(c1cc2c(s1)-c1ccccc1OC2)N1CCN(c2ccccc2)CC1 | 12.4%
CC1CCCCN1S(=O)(=O)c1ccc(NC(=O)c2cccc(-n3cnnn3)c2)cc1 (stereo not shown) | -0.404%
CNC(=O)c1ccccc1NC(=O)c1c(O)c2c([nH]c1=O)CCCC2 | 8.8%
Cc1ccc(C(C)(O)CS(=O)(=O)Cc2ccccc2Cl)cc1 (stereo not shown) | 16.1%
CC(C)=CCCC1=CCC2C(=O)NNC(=O)C2C1 (stereo not shown) | 6.59%
COC(=O)c1nn(C23CC4CC(CC(C4)C2)C3)c2c1C(=O)N(c1ccc(F)cc1)C2=O | -2.06%
CCCCNC(=O)N1CCN(c2ccccc2OCC)CC1 | 6.8%
Cc1ccc(C(=O)NCC(=O)OC(C)C(=O)Nc2ccc(N3CCOCC3)cc2)s1 (stereo not shown) | 0.838%
Cc1ccc(NC(=O)c2c3c(nc4ccccc24)CCC3)cc1 | 7.04%
CC(C)(C)c1nc(SCC(=O)NCc2ccco2)c2ccccc2n1 | 9.84%

SMILES | hERG current change (%, negative = inhibition) at 1uM
Cc1ccc(C)c(NC(=S)N(CCc2nc3cc(C)c(C)cc3[nH]2)Cc2cccnc2)c1 | 20.1%
Cc1ccc(C)c(N(CC(=O)NC(C)(C)C)C(=O)CNC(=O)c2cccs2)c1 | 13%
Cc1cc(NC(=O)COc2ccccc2C)ccc1NC(=O)c1cccs1 | 9.14%
COc1ccc(S(=O)(=O)N2CCOCC2)cc1NC(=O)Cc1c(Cl)cccc1Cl | 10.2%
O=C(Cc1ccc(F)cc1)N/N=C/c1ccccn1 | 10.8%
c1ccc2[nH]c(NN=C3CCCCCC3)nc2c1 | 9.84%
COc1ccc(NC(=O)NNC(=O)c2ccc(-c3ccccc3)cc2)c(OC)c1 | -11.1%
CC(C)(C)NC(=O)COC(=O)c1cc(Br)ccc1Cl | -4.39%
CCC1CCCCN1Cc1ccc(OC)c(OC)c1 (stereo not shown) | -0.574%
Cc1ccc(-c2csc(NC(=O)CSc3nc4ccccc4c(=O)n3CCCN(C)C)n2)cc1 | 2.76%
CCN(CC)C(=O)CSc1nnc(-c2ccccn2)n1-c1ccccc1OC | 18.4%
N#Cc1cc(N)ccc1Sc1ccccc1 | 14.9%
CC(C)c1c(C(=O)N/N=C/c2ccc(Cl)cc2Cl)nnn1-c1nonc1N | 25.2%
CCN(CC)c1ncnc2sc(C(=O)N3CCN(c4ccc(OC)cc4)CC3)c(C)c12 | -12.1%
O=C(NC(Cc1ccccc1)C(=O)O)NC12CC3CC(CC(C3)C1)C2 (stereo not shown) | 13.1%
CC(C)OCCCNC(=O)c1cn(C)c2ccc(S(=O)(=O)N(C)C3CCCCC3)cc2c1=O | 11.6%
Cc1cc(OC(=O)N2CCCCC2)cc(C)c1Cl | 3.32%
O=[N+]([O-])c1cc(S(=O)(=O)C(F)(F)F)ccc1Sc1nc2ccccc2s1 | 15.3%
CCC1CCCCN1C(=O)c1ccc(OC2CCN(C(=O)C3CC3)CC2)cc1 (stereo not shown) | 15.5%
COc1cc(C(=O)Nc2nc3ccccc3[nH]2)cc(OC)c1OC | -15.9%
CCc1cccc(C)c1NC(=O)C1CCN(c2nn3c(=O)cc(C)nc3s2)CC1 | 13%
NS(=O)(=O)c1ccc(CCNC(=O)C2CCC(Cn3c(=S)[nH]c4ccccc4c3=O)CC2)cc1 (stereo not shown) | 10.6%

SMILES | hERG current change (%, negative = inhibition) at 1uM
COc1cc(CC(=O)OCC(=O)Nc2cccc([N+](=O)[O-])c2)cc(OC)c1OC | -5.33%
COc1ccccc1N1CCN(C(=O)c2cc(C)on2)CC1 | 8.12%
COC(CNc1ccc([N+](=O)[O-])c(NCC(OC)OC)c1C#N)OC | 13.5%
OCC12CO[C@@H]3c4ccccc4[C@H](OC1)N32 (stereo partly shown) | 15.3%
CCC(C(=O)NCCCN1CCN(CCCNC(=O)C(CC)c2ccccc2)CC1)c1ccccc1 (stereo not shown) | 21.7%
Cc1ccc(SCC(=O)N(C)CC(=O)Nc2cccc(F)c2)cc1 | -1.61%
COc1ccccc1NS(=O)(=O)c1cc(C(=O)NCc2ccco2)ccc1C | -4.38%
Cc1c(C(=O)N2CCN(S(=O)(=O)c3cc(F)ccc3F)CC2)oc2ccccc12 | 8.26%
CCCNC(=O)c1ccc(COc2ccc(Cl)cc2)o1 | -1.1%
Cc1cc(NS(=O)(=O)c2ccc(NC(=O)CSc3nc4sc(C(=O)O)c(C)c4c(=O)[nH]3)cc2)no1 | 17.2%
Cc1cccc(OC(C)C(=O)N2CCCN(C)CC2)c1C (stereo not shown) | 6.41%
Cc1ccc(CCSc2ccc(C(C)C)cc2)cn1 | -3.25%
CN(CC(=O)Nc1ccc(F)cc1)C(=O)COC(=O)c1ccc(=O)n(Cc2ccccc2)n1 | 1.39%
O=C(COC(=O)CCc1nc2ccccc2n1-c1ccccc1)Nc1cccc(Cl)c1 | 6.11%
CCCCCCCCS(=O)C1CCS(=O)(=O)C1 (stereo not shown) | 6.95%
O=C(CC1Sc2ccccc2NC1=O)c1ccc(Br)cc1 (stereo not shown) | 18%
Cc1noc(C)c1C(=O)NCc1cccs1 | 9.84%
Cc1c(/C=N/NC(=O)c2ccccc2O)c2ccccn2c1C(=O)c1ccc(F)cc1 | 6.6%
Cc1ccc(Nc2nc(N)nc(CSC(=S)N3CCN(c4ccccc4)CC3)n2)cc1 | 13.4%
CC(=O)Nc1cc(C(=O)NCc2ccco2)ccc1Sc1ccc(F)cc1 | 1.14%
C(CNC1C2CC3CC(C2)CC1C3)CN1CCOCC1.Cl (stereo not shown) | 4.52%
Cc1cc(C(=O)NCC(=O)OCC(=O)N(C(C)C)C(C)C)ccc1[N+](=O)[O-] | 5.73%

SMILES | hERG current change (%, negative = inhibition) at 1uM
Cc1[nH]c(=O)[nH]c(=O)c1S(=O)(=O)Nc1ccc(F)c(Cl)c1 | 15.8%
Nc1[nH]c(=O)[nH]c(=O)c1N=Nc1ccccc1Cl | 20.2%
O=C(O)c1ccc(NS(=O)(=O)c2ccc3c(c2)C(=O)c2cc(S(=O)(=O)Nc4ccc(C(=O)O)cc4)ccc2-3)cc1 | 7.79%
CCCc1nc(N)c(C#N)c(-c2cccnc2)c1CC | -1.45%
Cc1cccc(C(=O)Nc2ccc(C(=O)/C=C/c3ccncc3)cc2)c1 | 9.29%
CNC(=O)C(=O)N/N=C/c1ccc(Br)cc1 | 11.4%
COC(=O)c1cnc(NNS(=O)(=O)c2ccc(C(F)(F)F)cc2)nc1C(F)(F)F | 10.7%
CCCOc1ccc(/C=N/NC(=O)CN2CCCCC2)cc1 | -9.28%
Oc1ccc(/C=N/Nc2cc(N3CCOCC3)nc(N3CCOCC3)n2)cc1 | 5.21%
Cc1cc(N2C(=O)C(O)=C(C(=O)c3cc4ccccc4o3)C2c2ccc(OC(C)C)cc2)no1 (stereo not shown) | 6.85%
CCc1ccc(C2CC(=O)N(c3cccc(F)c3)C3=C2C(=O)OC3)cc1 (stereo not shown) | -19.1%
O=C(COc1cc2oc(=O)c3c(c2cc1Cl)CCCC3)NCc1cccnc1 | -2.19%
COC(=O)c1ccccc1NC(=O)N1C[C@@H]2C[C@@H](C1)c1cccc(=O)n1C2 | -9.45%
CCc1ccc(NC(=O)C(=O)NCC2CCCO2)cc1 (stereo not shown) | 6.95%
Cc1ccc(N/N=C2\CCS(=O)(=O)c3sccc32)cc1 | 14.2%
COC(=O)CC(c1ccc(OC)c(OC)c1)c1ccc(OC)c(OC)c1 | 6.11%
Cc1ccc(-c2nn(-c3ccccc3)cc2CC(=S)N2CCOCC2)cc1 | 15.9%
COCCCNc1oc(-c2ccccc2OC)nc1C#N | -13.1%
O=C(c1cc(N2C(=O)C3C4CCC(C4)C3C2=O)ccc1Cl)N1CCN(c2ccc(F)cc2)CC1 (stereo not shown) | -19%
Cc1c(-c2cccs2)[n+](=O)c2c(n1[O-])CCC2 | 3.42%
COc1ccc(-c2nc(-c3ccncc3)no2)c(OC)c1 | 13.8%
Cc1ccc(CN2CCCNC2=O)cc1 | -8.67%
